Measured values as given in PubChem BioAssay (EPA / NIEHS).
For part of these data: Shown are results outside the selection of hits, which stands elsewhere. Records with an inconclusive call do not appear. This is a selection; strong and weak results do not stand in their true shares. Activity calls are given as the source filed them. Rule for the calls, unless noted: active = hit-call score of the fitted dose curve at least 0.9, where 1 is the maximum; inactive = score below 0.9.

Assays:
[1] = read-out: Interferon-gamma inducible Protein 10 (IP10), CXCL10 (gene 3627); assay: BSK_BE3C_IP10: BioMAP Diversity Plus: BE3C Assay for Interferon-gamma inducible Protein 10 (IP10) Biomarker Activity (AID 2283034); settings: actives raise or lower the signal; primary human bronchial epithelial cells
Summary of the method: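 Using primary human bronchial epithelial cultures, the assay captures IP-10 by ELISA one day (24 h) after exposure. Parallel SRB staining of total protein flags overt cytotoxicity. Fits run bidirectionally relative to DMSO.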

[2] = read-out: CD69, CD69 (gene 969); assay: BSK_SAg_CD69: BioMAP Diversity Plus: SAg Assay for CD69 Biomarker Activity (AID 2283089); settings: actives raise or lower the signal; primary human HUVEC with PBMC;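 note: cell surface CD69 protein quantified by ELISA with fluorescence detection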
Summary of the method: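 Primary human vascular co-culture (umbilical vein endothelium with peripheral blood mononuclear cells) exposed to test chemical for 24 h. CD69 levels quantified by fluorescence ELISA; DMSO served as negative control for bidirectional fitting.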

[3] = BSK_BE3C_SRB: Viability Assessment in the BioMAP Diversity Plus: BE3C Assay (AID 2283028); settings: primary human bronchial epithelial cells;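 for AC50: fitted both ways so AC50 may mark signal gain or loss versus DMSO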
Summary of the method: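 SRB total-protein staining (0.1%, after TCA fixation) of chemically dosed human bronchial epithelial primary cells at 24 h; DMSO serves as the negative control for bidirectional curve fitting.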

[4] = read-out: Interferon-gamma inducible Protein 10 (IP10), CXCL10 (gene 3627); assay: BSK_KF3CT_IP10: BioMAP Diversity Plus: KF3CT Assay for Interferon-gamma inducible Protein 10 (IP10) Biomarker Activity (AID 2283068); settings: actives raise or lower the signal; primary human keratinocytes with fibroblasts
Summary of the method: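 ELISA read-out of IP-10 after 24 h chemical dosing of human skin primary co-culture (keratinocytes, foreskin fibroblasts). Gain or loss of signal relative to DMSO, bidirectional curve fit.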

[5] = read-out: TIMP metallopeptidase inhibitor 2 (TIMP2), TIMP2 (gene 7077); assay: BSK_KF3CT_TIMP2: BioMAP Diversity Plus: KF3CT Assay for TIMP metallopeptidase inhibitor 2 (TIMP2) Biomarker Activity (AID 2283071); settings: actives raise or lower the signal; primary human keratinocytes with fibroblasts
Summary of the method: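 Keratinocyte–fibroblast co-culture, 24 h exposure; TIMP-2 ELISA, DMSO-normalised bidirectional fit. Parallel SRB (0.1%, TCA-fixed, 560 nm) total-protein staining gauges cytotoxicity.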

[6] = BSK_LPS_PGE2: BioMAP Diversity Plus: LPS Assay for Prostaglandin E2 (PGE2) Biomarker Activity (AID 2283082); settings: actives raise or lower the signal; primary human HUVEC with PBMC;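 note: secreted prostaglandin E2 measured by ELISA in LPS-stimulated co-culture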
Summary of the method: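 Endpoint derived from bidirectional curve fitting versus DMSO of ELISA-measured PGE2 in LPS-stimulated human primary vascular co-culture (HUVEC with PBMC) harvested at 24 h.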

[7] = read-out: CYP2C8 (gene 1558); assay: LTEA_HepaRG_CYP2C8: Life Technologies and Expression Analysis (LTEA) Assay for CYP2C8 using HepaRG (AID 2283483); settings: actives raise or lower the signal; mRNA level, 48 h
Summary of the method: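 Differentiated human HepaRG cells were exposed for 48 h in serum-free induction medium to eight half-log concentrations up to 100 uM in 0.5% DMSO, in duplicate. CYP2C8 mRNA was measured by TaqMan qRT-PCR, normalized to ACTB, GAPDH and POLR2A, and fitted bidirectionally against DMSO.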

[8] = read-out: Early growth response protein 1 (EGR1) transcription factor, EGR1 (gene 1958); assay: LTEA_HepaRG_EGR1: Life Technologies and Expression Analysis (LTEA) Assay for Early growth response protein 1 (EGR1) transcription factor using HepaRG (AID 2283490); settings: actives raise or lower the signal; mRNA level, 48 h
Summary of the method: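 Differentiated human HepaRG cells in serum-free induction medium were exposed in duplicate for 48 h to eight concentrations (top 100 uM, half-log steps) in 0.5% DMSO. EGR1 mRNA was quantified by qRT-PCR, normalized to ACTB, GAPDH and POLR2A, and fitted bidirectionally versus DMSO.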

[9] = TOX21_p53_BLA_p2_viability: Viability Assessment in the Tox21 HCT-116 p53 Agonism Beta-lactamase Assay, Phase 2 (AID 2283591; active = hit-call score of the fitted dose curve at least 0.9, where 1 is the maximum;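 note: compound exposure lasted 16 h at 37 °C; actives lower the ATP signal meaning cytotoxicity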)
Summary of the method: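 HCT-116 p53-bla cells (4000/well) rested 5 h at 37C, then received compounds in DMSO (217-fold dilution) for 16 h at 37C, 5% CO2. After the CCF4 read, CellTiter-Glo was added; ATP luminescence was read after 30 min at room temperature.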

[10] = ACEA_AR_antagonist_AUC_viability: ACEA Biosciences xCELLigence Real-Time Cell Analysis on Androgen Receptor Antagonism for Viability (AID 2283776; active = hit-call score of the fitted dose curve at least 0.9, where 1 is the maximum;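 note: 22Rv1 human prostate cancer cells growing on impedance electrode plates; area under impedance growth curve at 80 h after dosing as viability; hits lower the growth signal relative to DMSO meaning cytotoxicity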)
Summary of the method: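 Real-time electrical impedance tracks 22Rv1 proliferation after continuous compound exposure (top 100 uM final, 1:4 steps, 8 concentrations). The 80 h area-under-curve serves as the cytotoxicity readout relative to DMSO.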

[11] = CCTE_Shafer_MEA_dev_network_spike_duration_std: CCTE's Neural Network Formation Assay for Standard Deviation of Network Spike Duration, Shafer Lab (AID 2284052);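 note: area under curve of spike duration SD across recording days 5 to 12; hits are decreases in network spike duration SD versus DMSO vehicle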
Summary of the method: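 Rat cortical cultures, 1.5 x 10^5 cells/well, exposed continuously from plating to DIV 12 with media/compound renewal at DIV 5, 9. Spontaneous activity recorded DIV 5/7/9/12, AxIS adaptive spike detector; AUC across days; negative direction vs DMSO.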

[12] = read-out: Human Leukocyte Antigen - DR isotype (HLADR), HLA-DRA (gene 3122); assay: BSK_BE3C_HLADR: BioMAP Diversity Plus: BE3C Assay for Human Leukocyte Antigen - DR isotype (HLADR) Biomarker Activity (AID 2283032); settings: actives raise or lower the signal; primary human bronchial epithelial cells
Summary of the method: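 Signal came from an ELISA for HLA-DR in human bronchial epithelial primary cells harvested 24 h after treatment; gain- and loss-of-signal fitting used DMSO controls as reference.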

[13] = target: Estrogen receptor beta (Homo sapiens) (UniProt Q92731); assay: OT_ER_ERbERb_1440: Odyssey Thera (OT) 24-hour HEK293T Protein-Complementation Assay for Estrogen Receptor-beta/-beta Homodimer (AID 2283380; active = hit-call score of the fitted dose curve at least 0.9, where 1 is the maximum;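 note: fluorescence gain from ER beta LBD homodimer complementation read by laser scanning cytometry; scored as signal increase over DMSO baseline for both agonists and antagonists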)
Summary of the method: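 HEK293T cells stably expressing human ER-beta LBD (aa 310-547) PCA homodimer pair, dosed 24 h; formaldehyde-fixed, Draq5-stained. Readout: increase in nuclear (agonist) or nuclear plus cytoplasmic (antagonist) fluorescence intensity versus DMSO, gain-of-signal fitting.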

[14] = CEETOX_H295R_ESTRONE: CeeTox H295R High-throughput Steroidogenesis Assay for Estrone (AID 2283441); settings: actives raise or lower the signal;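 note: estrone secreted into medium measured by LC-MS/MS after dansyl derivatization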
Summary of the method: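 H295R cells; 48 h forskolin (10 uM) prestimulation; 48 h compound exposure, 0.1% DMSO final. Medium estrone: MTBE extraction, dansyl derivatization, HPLC-MS/MS. Bidirectional fit vs DMSO.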

[15] = read-out: Alkaline Phosphatase, Placental (ALPP) gene, ALPP (gene 250); assay: LTEA_HepaRG_ALPP: Life Technologies and Expression Analysis (LTEA) Assay for Alkaline Phosphatase, Placental (ALPP) gene using HepaRG (AID 2283468); settings: actives raise or lower the signal; mRNA level, 48 h
Summary of the method: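 Using human liver HepaRG cells, chemicals are tested in duplicate over 48 h at half-log concentrations topping at 100 uM; phenobarbital 1 mM serves as induction control. ALPP mRNA change by qRT-PCR, bidirectional fit against vehicle.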

[16] = read-out: CYP4A11 (gene 1579); assay: LTEA_HepaRG_CYP4A11: Life Technologies and Expression Analysis (LTEA) Assay for CYP4A11 using HepaRG (AID 2283486); settings: actives raise or lower the signal; mRNA level, 48 h
Summary of the method: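 Human hepatic HepaRG cultures receive duplicate 48 h exposures across a concentration-response series topping at 100 uM. Expression changes in CYP4A11 are measured by qRT-PCR relative to DMSO controls.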

[17] = read-out: CYP3A5 (gene 1577); assay: LTEA_HepaRG_CYP3A5: Life Technologies and Expression Analysis (LTEA) Assay for CYP3A5 using HepaRG (AID 2283493); settings: actives raise or lower the signal; mRNA level, 48 h
Summary of the method: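 mRNA induction or loss of CYP3A5 assessed in HepaRG after 48 h dosing, 100 uM top concentration, duplicate wells; TaqMan qRT-PCR with ACTB, GAPDH, POLR2A normalization; 0.5% DMSO as negative control.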

[18] = read-out: Hypoxia-inducible factor 1-alpha (Homo sapiens) (UniProt Q16665); assay: LTEA_HepaRG_HIF1A: Life Technologies and Expression Analysis (LTEA) Assay for Hypoxia-inducible factor 1 (HIF1A) Trancription factor using HepaRG (AID 2283503); settings: actives raise or lower the signal; mRNA level, 48 h;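 note: HIF1A transcript by TaqMan qRT-PCR normalized to ACTB GAPDH and POLR2A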
Summary of the method: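 HepaRG, 48 h exposure, 8-pt half-log series from 100 uM, 0.5% DMSO vehicle, duplicates. Readout: HIF1A transcript by qRT-PCR (Fluidigm array), housekeeping-normalised. Bidirectional curve fit vs DMSO baseline.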

[19] = read-out: 3-Hydroxy-3-Methylglutaryl-CoA Synthase 2 (HMGCS2), HMGCS2 (gene 3158); assay: LTEA_HepaRG_HMGCS2: Life Technologies and Expression Analysis (LTEA) Assay for 3-Hydroxy-3-Methylglutaryl-CoA Synthase 2 (HMGCS2) using HepaRG (AID 2283504); settings: actives raise or lower the signal; mRNA level, 48 h
Summary of the method: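 This steatosis marker was read as HMGCS2 mRNA change in HepaRG cells treated 48 h with up to 100 uM chemical. Normalisation used housekeeping genes; activity in either direction was fitted relative to 0.5% DMSO vehicle.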

[20] = CPHEA_Stoker_NIS_Cytotoxicity: Cytotoxicity Assessment for CPHEA's Radioactive Iodide Uptake (RAIU) Assay for Sodium/Iodide Symporter (NIS) Inhibition, Stoker and Laws Labs (AID 2283897; active = hit-call score of the fitted dose curve at least 0.9, where 1 is the maximum;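 note: active means loss of ATP signal versus DMSO meaning cytotoxicity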)
Summary of the method: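 hNIS-HEK293T-EPA human kidney cells were exposed for 2 hours at room temperature to test chemicals (0.001–100uM, 0.5% final DMSO) in HEPES-buffered HBSS, pH 7.4. Viability was read as ATP content by luciferase bioluminescence, loss of signal versus DMSO.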

[21] = read-out: Transforming growth factor beta 1 (TGFb1), TGFB1 (gene 7040); assay: BSK_BE3C_TGFb1: BioMAP Diversity Plus: BE3C Assay for Transforming growth factor beta 1 (TGFb1) Biomarker Activity (AID 2283036;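 note: TGF-b1 protein level measured by ELISA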); settings: actives raise or lower the signal; primary human bronchial epithelial cells
Summary of the method: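 In this human primary bronchial epithelial system, an ELISA quantified TGF-b1 one day after dosing. Endpoint changes in either direction were fitted relative to DMSO.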

[22] = read-out: Monocyte Chemoattractant Protein-1 (MCP1), CCL2 (gene 6347); assay: BSK_CASM3C_MCP1: BioMAP Diversity Plus: CASM3C Assay for Monocyte Chemoattractant Protein-1 (MCP1) Biomarker Activity (AID 2283046); settings: actives raise or lower the signal; primary human coronary artery smooth muscle cells;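 note: MCP-1 level quantified by ELISA 24 h after dosing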
[23] = target: Bile acid receptor (Homo sapiens) (UniProt Q96RI1); assay: OT_FXR_FXRSRC1_0480: Odyssey Thera (OT) 8-hour HEK293T Protein-Complementation Assay for Farnesoid X receptor/SRC-1 Co-activator (AID 2283383; active = hit-call score of the fitted dose curve at least 0.9, where 1 is the maximum)
Summary of the method: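 Co-activator recruitment to FXR was measured in living HEK293T cells, where interaction of the two fused partners restored an active fluorescent reporter. Signal gain after 8 h treatment was referenced to DMSO.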

Measured: AC50

Sequence of UniProt Q16665 (Q16665 whole entry, looked up): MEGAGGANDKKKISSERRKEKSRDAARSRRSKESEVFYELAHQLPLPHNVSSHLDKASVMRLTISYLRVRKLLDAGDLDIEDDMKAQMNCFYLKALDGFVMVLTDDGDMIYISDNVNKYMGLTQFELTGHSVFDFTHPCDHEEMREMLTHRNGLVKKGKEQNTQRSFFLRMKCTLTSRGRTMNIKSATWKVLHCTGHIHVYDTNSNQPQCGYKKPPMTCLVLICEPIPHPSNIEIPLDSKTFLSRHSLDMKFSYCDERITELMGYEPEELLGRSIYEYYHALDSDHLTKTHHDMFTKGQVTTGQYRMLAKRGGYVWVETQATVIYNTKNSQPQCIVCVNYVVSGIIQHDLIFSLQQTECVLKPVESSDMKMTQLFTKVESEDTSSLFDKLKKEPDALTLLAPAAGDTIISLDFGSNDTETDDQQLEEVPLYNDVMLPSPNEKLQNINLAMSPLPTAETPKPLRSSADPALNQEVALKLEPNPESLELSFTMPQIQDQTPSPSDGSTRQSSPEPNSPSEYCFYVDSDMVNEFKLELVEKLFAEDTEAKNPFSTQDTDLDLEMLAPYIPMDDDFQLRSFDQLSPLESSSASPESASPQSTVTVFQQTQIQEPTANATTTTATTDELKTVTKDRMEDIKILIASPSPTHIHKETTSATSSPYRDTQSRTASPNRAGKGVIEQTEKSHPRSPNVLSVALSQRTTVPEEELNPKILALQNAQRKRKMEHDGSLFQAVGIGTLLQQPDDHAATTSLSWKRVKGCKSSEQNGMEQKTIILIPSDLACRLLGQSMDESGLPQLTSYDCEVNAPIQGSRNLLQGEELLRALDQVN
Sequence of UniProt Q92731 (Q92731 whole entry, looked up, the tested form may be a part): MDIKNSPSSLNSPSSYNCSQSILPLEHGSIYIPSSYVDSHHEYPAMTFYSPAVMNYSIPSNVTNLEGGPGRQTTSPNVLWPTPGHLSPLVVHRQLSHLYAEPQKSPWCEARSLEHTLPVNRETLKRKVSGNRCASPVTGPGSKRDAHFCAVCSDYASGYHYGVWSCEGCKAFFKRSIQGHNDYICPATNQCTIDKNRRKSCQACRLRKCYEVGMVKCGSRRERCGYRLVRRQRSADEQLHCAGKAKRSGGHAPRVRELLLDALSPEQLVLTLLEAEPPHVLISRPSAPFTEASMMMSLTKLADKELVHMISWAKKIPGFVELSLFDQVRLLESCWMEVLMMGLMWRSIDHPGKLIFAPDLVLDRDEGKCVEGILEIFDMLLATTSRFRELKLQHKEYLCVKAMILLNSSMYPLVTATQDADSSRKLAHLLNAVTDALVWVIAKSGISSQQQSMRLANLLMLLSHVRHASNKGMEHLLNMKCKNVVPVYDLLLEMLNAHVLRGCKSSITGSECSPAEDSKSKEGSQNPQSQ
Sequence of UniProt Q96RI1 (Q96RI1 whole entry, looked up, the tested form may be a part): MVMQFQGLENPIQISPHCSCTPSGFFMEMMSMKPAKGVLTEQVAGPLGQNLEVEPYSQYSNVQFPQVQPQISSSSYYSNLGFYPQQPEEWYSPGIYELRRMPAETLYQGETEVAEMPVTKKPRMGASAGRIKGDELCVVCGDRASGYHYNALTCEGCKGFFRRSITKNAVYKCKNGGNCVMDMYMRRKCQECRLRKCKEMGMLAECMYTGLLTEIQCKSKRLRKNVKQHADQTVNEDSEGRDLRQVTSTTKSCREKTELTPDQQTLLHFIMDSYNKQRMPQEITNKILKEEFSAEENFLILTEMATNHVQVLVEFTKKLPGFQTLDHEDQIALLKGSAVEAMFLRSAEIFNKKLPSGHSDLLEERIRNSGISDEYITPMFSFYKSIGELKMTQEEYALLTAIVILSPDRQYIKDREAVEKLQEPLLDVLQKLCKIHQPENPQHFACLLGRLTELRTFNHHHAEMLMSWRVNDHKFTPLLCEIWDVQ

ClC1=C(Cl)[C@]2(Cl)[C@H]3[C@H]([C@H]4C=C[C@H]3C4)[C@@]1(Cl)C2(Cl)Cl
active: [1] 6.62 µM | [2] 6.42 µM

CC(C)[C@H](C(=O)O[C@H](C#N)c1cccc(Oc2ccccc2)c1)c1ccc(Cl)cc1
active: [6] 3.27 µM | [10] 19.2 µM | [11] 3.29 µM
inactive: [3] | [4] | [5] | [7] | [8] | [9]

O=P(Oc1ccccc1)(Oc1ccccc1)Oc1ccccc1
inactive: [14] | [17] | [18] | [19]
active: [12] 17.4 µM | [13] 12.3 µM | [15] 9.92 µM | [16] 17.5 µM | [20] 9.92 µM

CC(C)N1C(=O)c2ccccc2NS1(=O)=O
inactive: [21] | [22]

CC(C)(C)C(O)/C(=C\c1ccc(Cl)cc1Cl)n1cncn1 (centres undefined)
active: [3] 29.4 µM | [23] 11.7 µM
